The other results are listed elsewhere or left out.

The test addresses T1, MBP-FoxP1dN (Mus musculus, UniProt P58462 326-579).
T1 sequence: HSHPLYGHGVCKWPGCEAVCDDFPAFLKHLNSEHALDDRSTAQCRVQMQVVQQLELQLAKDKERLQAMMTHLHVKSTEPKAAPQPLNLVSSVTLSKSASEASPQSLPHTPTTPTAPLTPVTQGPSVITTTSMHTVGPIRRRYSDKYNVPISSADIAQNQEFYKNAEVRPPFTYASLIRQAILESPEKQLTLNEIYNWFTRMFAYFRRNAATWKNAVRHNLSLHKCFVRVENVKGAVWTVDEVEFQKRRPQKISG
The test can be described thus: PD-seq (MBP pull-down with sequencing); 20 mM Tris-HCl pH 7.5, 100 mM NaCl, 1.5 mM MgCl2, 0.4 uM protein, 0.1 uM dsDNA library, 30 min, room temperature, amylose pull-down; high values mean tight binding. The note with it: protein: recombinant; tags: His6-MBP; chain copies: 2; dsDNA, one strand shown. Put shortly: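 His6-MBP-tagged mouse FoxP3 or FoxP1 fragment lacking the N-terminus, expressed in E. coli, was mixed at 0.4 µM with 0.1 µM Klenow-filled double-stranded degenerate DNA library. Incubation was 30 min at room temperature in Tris pH 7.5 buffer with NaCl and MgCl2. Complexes were caught on amylose resin and washed three times; DNA was released with proteinase K, PCR-barcoded and Illumina-sequenced. Binding is reads-per-million enrichment, pull-down over input, with replicates pooled.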
As for “GATGATTGTTCTCCCAGCTGATGAATTCGTAGTCTCGAGTAAACAAATTTTCCTAATCTTTCTGTTCAAGCGCCATCTAC”, the binding signal is 0.855 RPM ratio (pull-down/input). To “GATGATTGTTCTCCCAGCTGATGAATTTTAGCGATCGAGTAAACAAATTTTCCTAATCTTTCTGTTCAAGCGCCATCTAC” belongs 0.839 RPM ratio (pull-down/input); to “GATGATTGTTCTCCCAGCTGATGAATTCGCCCCTTCGAGTAAACAAATTTTCCTAATCTTTCTGTTCAAGCGCCATCTAC”, 0.821 RPM ratio (pull-down/input); to “GATGATTGTTCTCCCAGCTGATGAATTTGATAGTTCGAGTAAACAAATTTTCCTAATCTTTCTGTTCAAGCGCCATCTAC”, 0.948 RPM ratio (pull-down/input).

“GATGATTGTTCTCCCAGCTGATGAATTTTGAGTGTCGAGTAAACAAATTTTCCTAATCTTTCTGTTCAAGCGCCATCTAC”: the binding signal is 0.89 RPM ratio (pull-down/input). Then “GATGATTGTTCTCCCAGCTGATGAATTCGCGTTTTCGAGTAAACAAATTTTCCTAATCTTTCTGTTCAAGCGCCATCTAC”, with 1.01 RPM ratio (pull-down/input); and “GATGATTGTTCTCCCAGCTGATGAATTGATCCTCTCGAGTAAACAAATTTTCCTAATCTTTCTGTTCAAGCGCCATCTAC”, with 0.828 RPM ratio (pull-down/input); and “GATGATTGTTCTCCCAGCTGATGAATTAGATCACTCGAGTAAACAAATTTTCCTAATCTTTCTGTTCAAGCGCCATCTAC”, with 0.944 RPM ratio (pull-down/input). For “GATGATTGTTCTCCCAGCTGATGAATTTCAATCGTCGAGTAAACAAATTTTCCTAATCTTTCTGTTCAAGCGCCATCTAC”, the binding signal is 0.842 RPM ratio (pull-down/input). On to “GATGATTGTTCTCCCAGCTGATGAATTGTAGAACTCGAGTAAACAAATTTTCCTAATCTTTCTGTTCAAGCGCCATCTAC”, for which the binding signal is 0.862 RPM ratio (pull-down/input). Then “GATGATTGTTCTCCCAGCTGATGAATTTTTTAGGTCGAGTAAACAAATTTTCCTAATCTTTCTGTTCAAGCGCCATCTAC”, with 0.925 RPM ratio (pull-down/input). To “GATGATTGTTCTCCCAGCTGATGAATTAAATGATTCGAGTAAACAAATTTTCCTAATCTTTCTGTTCAAGCGCCATCTAC” belongs 1.03 RPM ratio (pull-down/input); to “GATGATTGTTCTCCCAGCTGATGAATTTAAGGCGTCGAGTAAACAAATTTTCCTAATCTTTCTGTTCAAGCGCCATCTAC”, 0.91 RPM ratio (pull-down/input). “GATGATTGTTCTCCCAGCTGATGAATTTAACCTCTCGAGTAAACAAATTTTCCTAATCTTTCTGTTCAAGCGCCATCTAC”: the binding signal is 0.836 RPM ratio (pull-down/input). As to “GATGATTGTTCTCCCAGCTGATGAATTCCCTATTTCGAGTAAACAAATTTTCCTAATCTTTCTGTTCAAGCGCCATCTAC”, the binding signal is 0.89 RPM ratio (pull-down/input). Then “GATGATTGTTCTCCCAGCTGATGAATTATCATGATCGAGTAAACAAATTTTCCTAATCTTTCTGTTCAAGCGCCATCTAC”, with 1.05 RPM ratio (pull-down/input).

As for “GATGATTGTTCTCCCAGCTGATGAATTACAGCTTTCGAGTAAACAAATTTTCCTAATCTTTCTGTTCAAGCGCCATCTAC”, the binding signal is 1.09 RPM ratio (pull-down/input). Then “GATGATTGTTCTCCCAGCTGATGAATTAAAATGGTCGAGTAAACAAATTTTCCTAATCTTTCTGTTCAAGCGCCATCTAC”, with 0.897 RPM ratio (pull-down/input); and “GATGATTGTTCTCCCAGCTGATGAATTATTCAACTCGAGTAAACAAATTTTCCTAATCTTTCTGTTCAAGCGCCATCTAC”, with 0.975 RPM ratio (pull-down/input); and “GATGATTGTTCTCCCAGCTGATGAATTACCAATCTCGAGTAAACAAATTTTCCTAATCTTTCTGTTCAAGCGCCATCTAC”, with 0.961 RPM ratio (pull-down/input).

Consider “GATGATTGTTCTCCCAGCTGATGAATTAAGACGATCGAGTAAACAAATTTTCCTAATCTTTCTGTTCAAGCGCCATCTAC”, for which the binding signal was 0.826 RPM ratio (pull-down/input). Take “GATGATTGTTCTCCCAGCTGATGAATTGCTTACCTCGAGTAAACAAATTTTCCTAATCTTTCTGTTCAAGCGCCATCTAC”: the binding signal was 1.41 RPM ratio (pull-down/input). To “GATGATTGTTCTCCCAGCTGATGAATTCTAGCAGTCGAGTAAACAAATTTTCCTAATCTTTCTGTTCAAGCGCCATCTAC” belongs 0.834 RPM ratio (pull-down/input); to “GATGATTGTTCTCCCAGCTGATGAATTTCCGGACTCGAGTAAACAAATTTTCCTAATCTTTCTGTTCAAGCGCCATCTAC”, 0.734 RPM ratio (pull-down/input).

“GATGATTGTTCTCCCAGCTGATGAATTTTTGCATTCGAGTAAACAAATTTTCCTAATCTTTCTGTTCAAGCGCCATCTAC”: the binding signal was 1.48 RPM ratio (pull-down/input).

As to “GATGATTGTTCTCCCAGCTGATGAATTTTTCTCTTCGAGTAAACAAATTTTCCTAATCTTTCTGTTCAAGCGCCATCTAC”, the binding signal was 0.872 RPM ratio (pull-down/input). “GATGATTGTTCTCCCAGCTGATGAATTCACCCCATCGAGTAAACAAATTTTCCTAATCTTTCTGTTCAAGCGCCATCTAC”: the binding signal was 0.891 RPM ratio (pull-down/input). To “GATGATTGTTCTCCCAGCTGATGAATTCGGGCTATCGAGTAAACAAATTTTCCTAATCTTTCTGTTCAAGCGCCATCTAC” belongs 0.827 RPM ratio (pull-down/input). To “GATGATTGTTCTCCCAGCTGATGAATTTGATGAGTCGAGTAAACAAATTTTCCTAATCTTTCTGTTCAAGCGCCATCTAC” belongs 0.803 RPM ratio (pull-down/input). To “GATGATTGTTCTCCCAGCTGATGAATTCCCCACTTCGAGTAAACAAATTTTCCTAATCTTTCTGTTCAAGCGCCATCTAC” belongs 0.877 RPM ratio (pull-down/input); to “GATGATTGTTCTCCCAGCTGATGAATTAGGATTGTCGAGTAAACAAATTTTCCTAATCTTTCTGTTCAAGCGCCATCTAC”, 0.969 RPM ratio (pull-down/input).
